Assay results reported in PubChem BioAssay AID1963576 (National Center for Advancing Translational Sciences (NCATS), 2024).
Hit rate of the full screen: of about 46,000 compounds, about 60 (0.1%) were called active. Inconclusive results (about 3%) are left out. The call rests on the fitted dose curve; in most records, active means well fitted inhibition curve with a large enough effect; inconclusive means small, poorly fitted or top-dose-only effect; inactive means no such curve, though single readings can be large or run the other way. The list shows a part of the results.

assay: Primary qHTS assay for Inhibitors of ovarian cancer metastasis using an organotypic tumor microenvironment (TME) model.; further: nearly all actives have a fitted effect of over 65% in size;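 on activity change, negative = inhibition: plate controls were DMSO wells for no effect and tomatine positive control wells for full effect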; settings: SKOV3ip1-GFP adhesion/invasion on 3D omental model, fluorescence; series mostly up to 45.8 µM; activity change, negative = inhibition: at the top concentration
In short: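 qHTS, 4-pt dose (0.36-46 umol/L); SKOV3ip1-GFP, 1,200 cells/well, no FBS; primary omental fibroblast/mesothelial co-culture 48 h pre-grown; 2 h RT + 16 h 37 C; PBS wash, 4% PFA; GFP count 488/509 nm.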

Activity change, negative = inhibition, inactive:
COc1ccc(C(=O)N/C(=C\c2cn(S(=O)(=O)N(C)C)c3ccccc23)C(=O)NCCCn2ccnc2)cc1 1.08%, O=C(CSc1nnc(-c2ccccc2F)o1)N1CCc2ccccc21 18.6%, O=C(Cc1ccc(Cl)cc1)NCC(c1cccs1)S(=O)(=O)c1ccc(Cl)cc1 (stereo not drawn) -3.28%, COc1cccc(CNC(=O)CN2C(=O)CCn3nc(-c4cn(C)c5ccccc45)cc32)c1OC 4.65%, O=C(Cn1nc(C(F)(F)F)c2c1CCCC2)Nc1ccc(Cl)cc1 1.23%, Cc1ccc(-n2c3c(cc(-c4nc(-c5ccc(Cl)cc5)cs4)c2=O)C(=O)CC(C)(C)C3)cc1 15.1%, COc1cc(OC)cc(C(=O)Nc2ccc(S(=O)(=O)Nc3onc(C)c3C)cc2)c1 -4.3%, Cc1ccc(NC(=O)CSc2nc(C)cc(C)c2C(=O)Nc2cccc(C)c2)cc1 -7.31%, COc1ccc(NC(=O)Cn2ncc3c([nH]c4ccccc43)c2=O)cc1Cl 11%, O=C(NCCc1ccccc1)c1ccc(CSc2nc3ccncc3n2Cc2ccccc2)cc1 4.51%, CCOC(=O)c1cccc(NC(=O)c2cc(-c3ccc(Cl)s3)nc3ccccc23)c1 17.1%, CCc1ccc(N2C(=O)CSC23C(=O)N(Cc2cccc(F)c2)c2ccccc23)cc1 (stereo not drawn) -25.5%, COc1ccc(NC(=O)CNS(=O)(=O)c2cccs2)c(OC)c1 -4.92%, Cc1ccc(NC(=O)c2cc3c(=O)n(Cc4cccnc4)ccc3nc2C)cc1F 1.15%, COc1ccc(Br)cc1CNC(=O)CN1C(=O)CSc2ccc(S(=O)(=O)N3CCOCC3)cc21 5.94%, Cc1cccc(C(=O)Nc2cccc(C(=O)OCc3cc(=O)n4ccsc4n3)c2)c1 -19.9%, NS(=O)(=O)c1cc2c(cc1Cl)NC=NS2(=O)=O -14.5%, COc1ccc(OC)c(CNC(=O)c2cccc(NC(=O)N3CCSc4ncccc43)c2)c1 -12.3%, COc1ccccc1NC(=O)C1=C(C)Nc2ncnn2C1c1ccccn1 (stereo not drawn) -0.835%, Cc1ccc(-n2nc(C)c3nc(CCC(=O)Nc4ccc(F)cc4)c(=O)n(C)c32)cc1 -13.7%, CCOc1ccccc1N(C)C(=O)NCc1noc2ccccc12 2.2%, O=C(NCCc1ccc(Cl)cc1)c1cccn1-c1nnc(N2CCCC2)s1 7.23%, CCc1ccccc1NC(=O)c1cc(S(=O)(=O)NC2CCCC2)ccc1F 2.69%, COc1ccc(C(=O)N2CCC(C(=O)Nc3ccccc3Cl)CC2)cc1 9.64%, CCCn1cc(S(=O)(=O)c2ccccc2)c(=O)c2cc(F)c(N3CCCC3)cc21 -2.54%, COc1ccc(-n2nc(C(=O)N3CCN(c4cccc(C)c4)C(C)C3)c3c4ccccc4n(C)c3c2=O)cc1 (stereo not drawn) -3.5%, CCCn1ccc2c(OCC(=O)Nc3ccc(F)cc3F)cccc2c1=O 5.98%, N#Cc1ccc(COC[C@H]2O[C@@H](n3c(NCc4ccc(Cl)c(Cl)c4)nc4c(N)ncnc43)[C@@H](O)[C@@H]2O)cc1 -19.8%, COc1ccc(NC(=O)c2nn(C)c3c2CSc2ccc(C)cc2-3)cc1OC -10.1%, COc1ccc(C2(C#N)CCC(C(=O)O)CC2)cc1OC1CCCC1 (stereo not drawn) 9.33%, COc1ccc(CNC(=O)CN2C(=O)COc3ccc(S(=O)(=O)N4CCCCCC4)cc32)cc1 9.7%, COc1ccc(-n2c(SCC(=O)NCc3ccccc3)nc3ccsc3c2=O)cc1 -3.79%, CCOC(=O)c1ccc(NC(=O)CC2Nc3cc(C)c(C)cc3NC2=O)cc1 (stereo not drawn) 12.7%, COCCOC(=O)Cn1nnc2sc(-c3ccccc3)cc2c1=O 5.57%, COCCCNC(=O)c1ccc(Cn2c(=O)c3ccccc3n(Cc3ccc(C)cc3)c2=O)cc1 -24.3%, Cc1[nH]c(C=C2C(=O)Nc3ccccc32)c(C)c1CCC(=O)O -24.1%, COc1cccc(NC(=O)c2ccc3c(=O)n4nc(Nc5ccccc5OC)sc4nc3c2)c1 -7.29%, CCOc1ccc(-n2c(=O)c3c4c(sc3n(CC(=O)NCCCOC)c2=O)CCCCC4)cc1 -6.77%, CCc1cccc(C)c1NS(=O)(=O)c1ccc2c(c1)NC(=O)C(C)C(=O)N2 (stereo not drawn) -3.5%, CC(=O)OC[C@@H]1O[C@@H](n2ccc(=O)[nH]c2=O)[C@H](OC(C)=O)[C@H]1OC(C)=O 4.32%, CC(=O)N1CCCc2cc(S(=O)(=O)N3CCCC(C(=O)N4CCN(c5ccccc5F)CC4)C3)ccc21 (stereo not drawn) 2.06%, CCOC(=O)c1cc2c(=O)n3ccccc3nc2n(Cc2ccco2)c1=NC(=O)c1ccc(OC)cc1 2.45%, CC(C)COc1ccc(C(=O)Nc2scc(-c3ccc(Br)cc3)c2C(=O)OC(C)C)cc1 16.4%, CSc1ccc(CNC(=O)c2ccc3c(c2)N(C)C(=O)C2CCCCN32)cc1 (stereo not drawn) -5.94%, CCCCNC(=O)c1cnn2c(C)c(Cc3c(C)cc(C)cc3C)c(C)nc12 -2.23%, Cc1ccccc1OCc1ccc(-c2nc(C#N)c(N3CCCCC3)o2)o1 -22.6%, Cc1cc(C)c(NC(=O)Cn2nnc(C(=O)NCc3cccs3)c2N)c(C)c1 -6.57%, Cc1ccc(CNC(=O)c2c(-c3ccc(F)cc3F)noc2C)o1 0.887%, O=C(NCc1cccc(Cl)c1)C1CCN(c2nn3cc(-c4ccc(F)cc4)nc3s2)CC1 0.123%, CCN(CC)c1ccc2cc(-c3nc(-c4ccccc4)no3)c(=O)oc2c1 14.1%, O=C(NCc1ccccc1)c1cccc(N2CCCS2(=O)=O)c1 22.4%, O=c1ccc2cc(S(=O)(=O)NCc3ccc(Cl)cc3)ccc2[nH]1 -9.65%, CCOc1ccc(-n2nc(CO)c(C(=O)NCC(c3ccccc3)c3ccccc3)n2)cc1 -4.23%, COc1ccc(C(=O)COC(=O)CCCC(=O)Nc2ccc(C(C)=O)cc2)cc1 9.2%, Cc1cc(C)c(NC(=O)COCc2cc(-c3cccs3)on2)c(C)c1 -2.29%, COC(=O)c1scc(-c2ccc(C)cc2)c1S(=O)(=O)Nc1ccc(NC(C)=O)cc1 -26.6%, COc1ccc(S(=O)(=O)N(CC(=O)NCCSc2ccccc2)c2ccc(Cl)cc2)cc1 -9.43%, O=C(CSc1nccn1Cc1ccc(F)cc1)NCc1ccccc1 0.511%, COC(=O)c1ccc(-n2nnc(-c3nsc(NC(=O)c4ccc(Cl)cc4)n3)c2C)cc1 5.65%, COc1ccccc1NC(=O)CCNS(=O)(=O)c1ccc2c(c1)CCN2C(=O)C1CC1 6.07%, CCN(CC)C(=O)c1sc2c(c1C)c(=O)n(Cc1ccccc1)c(=O)n2CC(=O)Nc1ccc(OC)cc1 5.48%, Cc1ccccc1CNC(=O)Cc1csc2ccccc12 -1.26%, CCCSc1ncc(Cl)c(C(=O)Nc2sc3c(c2C(N)=O)CCCC3)n1 -12%, CCOC(=O)c1c(C)oc2ccc(N(C(=O)c3ccncc3)S(=O)(=O)c3ccc(F)cc3)cc12 -3.64%, CCN(Cc1ccccc1)C(=O)CCS(=O)(=O)c1cc(Br)cc2c1N(C(=O)C1CC1)CC2 16.2%

outcome, inactive:
Cc1cccc(C(=O)Nc2nnc(SCc3cc(=O)n4cccc(C)c4n3)s2)c1, CCOC(=O)c1c(C)[nH]c(CCC(=O)Nc2cc(C)cc(C)c2)c1C, CCN(CC)CCCNC(=O)c1cn(C)c2ccc(S(=O)(=O)N3CCOCC3)cc2c1=O, COc1ccc(OC(C)C(=O)NCc2nc(-c3ccc(Cl)cc3)no2)cc1 (stereo not drawn), CCOC(=O)c1ccc2ncc(C(=O)OCC)c(Nc3ccc(C)c(Br)c3)c2c1, CCC(C(=O)NCc1ccccc1)n1ncn2c(cc3occc32)c1=O (stereo not drawn), O=c1c2oc3ccccc3c2n(Cc2cccc(C(F)(F)F)c2)c(=O)n1Cc1ccc2c(c1)OCO2, CC(C)Sc1ncc(Cl)c(C(=O)Nc2ccc(S(=O)(=O)N3CCCCC3C)cc2)n1 (stereo not drawn), CCn1cc(C(=O)NC(C)c2ccccc2)c(=O)c2cc(S(=O)(=O)N3CCc4ccccc4C3)ccc21 (stereo not drawn), COc1ccc(C(=O)c2cn(CC(=O)Nc3ccc4c(c3)OCO4)c3ccc(OC)cc3c2=O)cc1, Cc1ccc(NC(=O)Cn2cc(S(=O)(=O)N3CCCC3)c(S(=O)(=O)N3CCCC3)c2)c(C)c1, Cc1ccc(C(=O)N/C(=C\c2cn(S(=O)(=O)N(C)C)c3ccccc23)C(=O)NCCCn2ccnc2)cc1, COc1ccc(NC(=O)c2ccco2)cc1NC(=O)COc1ccccc1Cl, Cc1cccc(NC(=O)CSc2nc3c([nH]c4ccccc43)c(=O)n2-c2ccc(F)cc2)c1C, Cc1ccc(C2Nc3ccccc3-n3c(-c4ccccc4)c4c(=O)n(C)c(=O)n(C)c4c32)cc1 (stereo not drawn), COC(=O)c1sccc1S(=O)(=O)N(CC(=O)Nc1cc(C)cc(C)c1)c1ccc(Cl)cc1, COc1ccc(CNC(=O)c2ccc(CNS(=O)(=O)c3ccc(OC)cc3)cc2)cc1, Cc1nn(S(=O)(=O)c2ccc(C(C)C)cc2)c(C)c1S(=O)(=O)N1CCCCC1, Cc1nc(SCC(=O)OC(C)(C)C)c2c3c(sc2n1)CCCC3, Cc1ccc2c(c1)-c1c(cnn1CC(=O)N1CCN(c3cccc(C(F)(F)F)c3)CC1)CO2, COc1cc(NC(=O)Cn2c(=O)n(-c3ccccc3)c(=O)c3c4c(sc32)CCCC4)cc(OC)c1, COc1ccc(CC(=O)NCC(c2ccc(N(C)C)cc2)N2CCOCC2)cc1OC (stereo not drawn), COc1ccc(-c2cn3nc(N4CCCC(C(=O)Nc5cc(Cl)ccc5OC)C4)sc3n2)cc1 (stereo not drawn), Cc1nc2cccnc2n1C1CCN(C(=O)Nc2ccccc2C(F)(F)F)CC1, COc1ccc(-n2ncc(C(=O)NCc3ccc4c(c3)OCO4)c2C2CCN(C(=O)OC(C)(C)C)CC2)cc1, CCc1cccc(N2C(=O)CSC23C(=O)N(Cc2ccccc2F)c2ccccc23)c1 (stereo not drawn), Cc1cccc(OCC(=O)Nc2cccc(C(=O)OCc3cc(=O)n4c(C)csc4n3)c2)c1, O=c1c(NCCc2ccc(Cl)cc2)nccn1-c1ccccc1
